Experimental data as given in PubChem BioAssay AID1347044 (National Center for Advancing Translational Sciences (NCATS), 2019).
Some of the results follow. These are further read-outs of the screen, such as a control signal, another cell line or another target. No call is given for them. Most of these compounds were active or inconclusive in the main read-out, so they are no random draw. The note in brackets gives the kind of curve behind each potency; many fits are weak.

Test: Natriuretic polypeptide receptor (hNpr1) antagonism - Confirmation; further: nearly all actives have a fitted effect of over 70% in size
Details: HEK293 hNpr1 cGMP GloSensor luminescence, ANP-stimulated; measured here: HEK-hNpr1 cytotoxicity, CellTiter-Glo
In short: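 Compound (30 min, room temperature) preceded stimulation with hNppA peptide at 0.1 nM final for 20 min. Cells were HEK293 carrying hNpr1 plus GloSensor pGS-40F cGMP biosensor, pre-equilibrated 2 h with 2% substrate; cGMP was followed as luminescence pre- and post-agonist.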
Tags describe the fitted curve by direction and shape.

Question: With `CC1Oc2ccc(NC(=O)Cc3ccccc3)cc2CN(Cc2ccc(Cl)cc2)C1=O` (stereo unspecified) as the compound, how does the CC50 read?
Answer: Its CC50 is 43.2 µM [falling, single point].

Question: For `Cc1nc(N2CCC(NC(=O)Cc3ccccc3Cl)CC2)cc(C(F)(F)F)n1`, which CC50 is on record?
Answer: Its CC50 is 13.7 µM [falling, partial curve].

Question: Which CC50 does the source give for `O=C(c1ccccc1)N1CCC(C(=O)N2CCC(Cc3nc(-c4ccc(F)cc4)no3)CC2)CC1` here?
Answer: The CC50 was 17.2 µM [falling, partial curve].

Question: Which CC50 does the source give for `OC1CC(c2cc(N3CCN(c4nsc5ccccc45)CC3)ncn2)C1` (stereo unspecified) here?
Answer: Its CC50 is 4.85 µM [falling, full curve].

Question: For `COc1ccc(C(C)NC(=O)C2CCN(c3cc(C(F)(F)F)ncn3)CC2)cc1` (stereo unspecified), which CC50 is on record?
Answer: Its CC50 is 21.7 µM [falling, partial curve].

Question: With `Cc1ccc(CNC(=O)C2CCN(c3cc(C(F)(F)F)ncn3)CC2)cc1` as the compound, how does the CC50 read?
Answer: The CC50 was 19.3 µM [falling, partial curve].

Question: For `CC1=NS(=O)(=O)N(C)C=C1C(=O)OCc1nc(-c2cccc(C)c2)no1`, which CC50 is on record?
Answer: The CC50 was 21.7 µM [falling, partial curve].

Question: For `CCN(CC)C(=O)N1CCC(Oc2ccc(-c3noc(COC)n3)cc2)C1` (stereo unspecified), which CC50 is on record?
Answer: The CC50 was 15.3 µM [falling, partial curve].

Question: For `FC(F)(F)c1ccc(N2C3CCC2CN(Cc2cccc(-c4cccnc4)c2)C3)cc1`, which CC50 is on record?
Answer: The CC50 was 7.69 µM [falling, partial curve].

Question: For `CCNC(=O)N1CCC(Cc2ccc(C(=O)NCCc3c[nH]c4ccccc34)cc2)CC1`, which CC50 is on record?
Answer: The CC50 was 24.3 µM [falling, partial curve].

Question: For `CCOc1ccc(C(=O)N2CCN(c3cc(-c4ccc(Cl)cc4)[nH]n3)CC2)cc1OCC`, which CC50 is on record?
Answer: Its CC50 is 19.3 µM [falling, partial curve].

Question: Which CC50 does the source give for `COc1ccccc1Nc1cnc2ccc(N(C)Cc3cccnc3)nn12` here?
Answer: The CC50 was 35.3 µM [falling, partial curve].

Question: Which CC50 does the source give for `O=C(c1ccc(F)cc1)N1CCCC(n2cc(-c3nc(-c4ccccc4)no3)nn2)C1` (stereo unspecified) here?
Answer: The CC50 was 24.3 µM [falling, partial curve].

Question: Which CC50 does the source give for `O=C(c1ccc(Br)cc1)N1CCN(c2cc(-c3ccc(Cl)cc3)[nH]n2)CC1` here?
Answer: Its CC50 is 21.7 µM [falling, partial curve].

Question: Which CC50 does the source give for `COc1ccc(OCC(=O)N2CCC(Cc3nc(-c4ccc(OC)cc4)no3)CC2)cc1` here?
Answer: The CC50 was 19.3 µM [falling, partial curve].

Question: With `COC(=O)c1cccc(NC(=S)N[C@H]2CO[C@H]3[C@@H]2OC[C@@H]3n2cc(-c3ccccc3)nn2)c1` as the compound, how does the CC50 read?
Answer: The CC50 was 21.7 µM [falling, partial curve].

Question: For `COc1ccc(-c2noc(CC3CCN(C(=O)c4ccc(C)nc4)CC3)n2)cc1`, which CC50 is on record?
Answer: The CC50 was 7.69 µM [falling, full curve].

Question: For `COc1cc(Cl)ccc1C(=O)NC1CCN(c2cc(C(F)(F)F)nc(C)n2)CC1`, which CC50 is on record?
Answer: The CC50 was 21.7 µM [falling, partial curve].

Question: For `N#Cc1ccc([S+](=O)([O-])N2CCC3(CC2)OCCN(CC2CC2)C3=O)cc1`, which CC50 is on record?
Answer: Its CC50 is 31.4 µM [falling, partial curve].

Question: Which CC50 does the source give for `COc1ccc(CCC(=O)N2CCC(Cc3nc(-c4ccccc4)no3)CC2)cc1` here?
Answer: Its CC50 is 19.3 µM [falling, partial curve].

Question: With `COc1ccccc1C(=O)N1CCN(C(=O)c2nnn3c2COC(c2ccc(C)cc2)C3)CC1` (stereo unspecified) as the compound, how does the CC50 read?
Answer: Its CC50 is 30.6 µM [falling, single point].

Question: Which CC50 does the source give for `COc1ccc(C(=O)N2CCCN(c3cc(-c4ccccc4)[nH]n3)CC2)c(OC)c1` here?
Answer: The CC50 was 21.7 µM [falling, partial curve].

Question: For `COc1ccccc1CN1CCc2nc(C(=O)Nc3cccc(C(F)(F)F)c3)oc2CC1`, which CC50 is on record?
Answer: Its CC50 is 21.7 µM [falling, partial curve].

Question: For `Cc1ccccc1CN1CCc2nc(C(=O)NCc3ccncc3)oc2CC1`, which CC50 is on record?
Answer: Its CC50 is 28 µM [falling, partial curve].

Question: With `CCN(CC)C(=O)c1csc(N2CCN(c3cccc(Cl)c3)CC2)n1` as the compound, how does the CC50 read?
Answer: Its CC50 is 24.3 µM [falling, partial curve].

Question: Which CC50 does the source give for `Cc1ccc(CNC(=O)c2ccc3c(c2)CN(Cc2ccc(N(C)C)cc2)CCO3)cc1` here?
Answer: The CC50 was 24.3 µM [falling, partial curve].

Question: Which CC50 does the source give for `COc1ccc(C)cc1C(=O)N1CCc2onc(-c3ccccc3F)c2C1` here?
Answer: The CC50 was 21.7 µM [falling, partial curve].

Question: With `COc1ccc(C(=O)N2CCCN(c3cc(-c4ccc(Cl)cc4)[nH]n3)CC2)c(C)c1` as the compound, how does the CC50 read?
Answer: Its CC50 is 12.2 µM [falling, partial curve].

Question: Which CC50 does the source give for `CC(=O)N1CCN(c2nc3c(s2)CC(C(=O)Nc2cccc(C(C)(C)C)c2)CC3)CC1` (stereo unspecified) here?
Answer: The CC50 was 19.3 µM [falling, partial curve].

Question: For `O=S(=O)(c1cccc(F)c1)N1CCC2(CC1)CC(Cc1nc(C3CC3)no1)CCO2` (stereo unspecified), which CC50 is on record?
Answer: The CC50 was 17.2 µM [falling, partial curve].

Question: Which CC50 does the source give for `COc1ccc(C2Cn3nnc(C(=O)N4CCN(C(=O)Cc5ccc(Cl)cc5)CC4)c3CO2)cc1` (stereo unspecified) here?
Answer: The CC50 was 21.7 µM [falling, partial curve].

Question: For `Cc1ccc(C(=O)N[C@H]2CO[C@H]3[C@@H]2OC[C@@H]3n2nnnc2Oc2ccccc2)cc1`, which CC50 is on record?
Answer: Its CC50 is 17.7 µM [falling, partial curve].

Question: For `O=C(Nc1ccc(Cl)cc1)c1nc2c(o1)CCN(Cc1ccc3cn[nH]c3c1)CC2`, which CC50 is on record?
Answer: The CC50 was 11.1 µM [falling, partial curve].

Question: With `COc1ccc(C(=O)N2CCC3(CC2)CC(c2cccc(C(F)(F)F)c2)=NO3)cc1` as the compound, how does the CC50 read?
Answer: The CC50 was 27.3 µM [falling, partial curve, poor fit].

Question: For `FC(F)(F)c1ccc(O[C@H]2COCCN(c3nc4ccccc4o3)C2)nc1`, which CC50 is on record?
Answer: Its CC50 is 62.7 µM [falling, single point].

Question: For `CN(Cc1cnc2ccccc2c1)C(=O)c1ccc(CCC(C)(C)O)cc1`, which CC50 is on record?
Answer: Its CC50 is 6.85 µM [falling, partial curve].

Question: With `CCc1ccc(C(=O)N2CCC(Cc3nc(-c4cccc(OC)c4)no3)CC2)cc1` as the compound, how does the CC50 read?
Answer: Its CC50 is 17.2 µM [falling, partial curve].

Question: For `COc1ccc(C(=O)N2CCN(c3cc(-c4ccc(Cl)cc4)[nH]n3)CC2)cc1OC`, which CC50 is on record?
Answer: Its CC50 is 17.2 µM [falling, partial curve].

Question: Which CC50 does the source give for `Cc1ccc(C2Cn3nnc(C(=O)N4CCN(C(=O)c5cccc(C)c5)CC4)c3CO2)cc1` (stereo unspecified) here?
Answer: Its CC50 is 19.3 µM [falling, partial curve].

Question: With `O=C(c1cccc(Br)c1)N1CCN(c2cc(-c3ccc(Cl)cc3)[nH]n2)CC1` as the compound, how does the CC50 read?
Answer: Its CC50 is 34.3 µM [falling, single point].

Question: Which CC50 does the source give for `COc1cccc(CCC(=O)N2CCC(n3cc(-c4nc(-c5ccccc5)no4)nn3)C2)c1` (stereo unspecified) here?
Answer: The CC50 was 21.7 µM [falling, partial curve].

Question: For `O=C(c1ccc(F)cc1F)N1CCC2(CC1)N=C(c1ccc(Br)cc1)NO2`, which CC50 is on record?
Answer: The CC50 was 24.3 µM [falling, partial curve].

Question: Which CC50 does the source give for `O=C(Nc1ccc(F)cc1)c1ccc2cc[nH]c2n1` here?
Answer: The CC50 was 39.6 µM [falling, partial curve].

Question: Which CC50 does the source give for `COc1ccccc1-c1[nH]nc2ncc(C(=O)NCc3cccnc3)nc12` here?
Answer: Its CC50 is 39.6 µM [falling, single point].

Question: For `CCN(Cc1cccc2cnccc12)CC1CCCN(CCc2cccc(F)c2)C1` (stereo unspecified), which CC50 is on record?
Answer: The CC50 was 38.5 µM [falling, single point].

Question: With `Cc1nc(-c2ccc(OC3CCN(C(=O)c4cc(C)n(C)n4)C3)cc2)no1` (stereo unspecified) as the compound, how does the CC50 read?
Answer: The CC50 was 21.7 µM [falling, partial curve].

Question: For `CCC(O)c1cc2n(n1)CCN(C(=O)c1ccc(-c3ccccc3)n1C)C2` (stereo unspecified), which CC50 is on record?
Answer: Its CC50 is 21.7 µM [falling, partial curve].

Question: Which CC50 does the source give for `COc1ccc(C(=O)N2CCC3(CC2)N=C(c2ccc(Cl)cc2)NO3)cc1` here?
Answer: The CC50 was 21.7 µM [falling, partial curve].

Question: With `O=C(CC1CCCCN(Cc2ccccc2)C1=O)N1CCN(c2ccc(F)cc2)CC1` (stereo unspecified) as the compound, how does the CC50 read?
Answer: The CC50 was 17.2 µM [falling, partial curve].

Question: With `O=[S+]([O-])(Nc1ccccc1)c1ccc2c(c1)OCCN(Cc1cccnc1)C2` as the compound, how does the CC50 read?
Answer: The CC50 was 44.4 µM [falling, single point].

Question: For `C[C@@H]1C(=O)O[C@H]2[C@H]1CC[C@@]1(C)Cc3sc(NC(=O)c4ccc(N(C)C)cc4)nc3[C@@H](C)[C@H]21`, which CC50 is on record?
Answer: Its CC50 is 3.43 µM [falling, full curve].

Question: For `O=C(c1cc(F)ccc1F)N1CCC(Cc2nc(-c3ccc(F)cc3)no2)CC1`, which CC50 is on record?
Answer: Its CC50 is 5.44 µM [falling, full curve].

Question: Which CC50 does the source give for `COc1ccc(CC(=O)NC2CCN(c3cc(-c4ccc(F)cc4)[nH]n3)CC2)cc1OC` here?
Answer: Its CC50 is 21.7 µM [falling, partial curve].

Question: Which CC50 does the source give for `Cc1ccc(Cl)cc1N1CCN(c2cc(C3CC(O)C3)ncn2)CC1` (stereo unspecified) here?
Answer: Its CC50 is 17.2 µM [falling, partial curve].

Question: For `CCCn1cc(C(=O)NCC2COc3cc(OC)ccc3C2)c(C)n1` (stereo unspecified), which CC50 is on record?
Answer: Its CC50 is 19.3 µM [falling, partial curve].

Question: With `COc1ccc(C2Cn3nnc(C(=O)N4CCN(C(=O)c5cccc(F)c5)CC4)c3CO2)cc1` (stereo unspecified) as the compound, how does the CC50 read?
Answer: Its CC50 is 21.7 µM [falling, partial curve].

Question: Which CC50 does the source give for `COc1ccc(CN2CCn3c(nn(-c4ccc([N+](=O)[O-])cc4)c3=O)C2)cc1` here?
Answer: The CC50 was 43.2 µM [falling, single point].

Question: Which CC50 does the source give for `CC1(COc2cccnc2)COc2ccc(C(=O)NCc3ccc4c(c3)OCO4)cc2N1` (stereo unspecified) here?
Answer: Its CC50 is 35.3 µM [falling, partial curve].

Question: Which CC50 does the source give for `COc1ccc(C2Cn3nnc(C(=O)N4CCN(C(=O)c5cc(F)ccc5F)CC4)c3CO2)cc1` (stereo unspecified) here?
Answer: The CC50 was 19.3 µM [falling, partial curve].

Question: Which CC50 does the source give for `O=C(Nc1cc(F)cc(C(F)(F)F)c1)N1CCCOC(Cn2cccn2)C1` (stereo unspecified) here?
Answer: The CC50 was 30.6 µM [falling, single point].

Question: Which CC50 does the source give for `CC1=NS(=O)(=O)N(C)C=C1C(=O)OCc1nc(-c2ccc(F)cc2)no1` here?
Answer: Its CC50 is 24.3 µM [falling, partial curve].
